# According to PubChem BioAssay AID1508642 (National Center for Advancing Translational Sciences (NCATS), 2021):
# Hit rate of the full screen: of about 43,000 compounds, about 200 (0.47%) were called active. About 12% were inconclusive and are not listed. Calls follow the shape of the dose curve; as a rule, active = well fitted cell-killing curve with a large enough effect; inconclusive = small, poorly fitted or top-dose-only effect, or effect the other way; inactive = flat fitted curve, though single readings scatter. The list shows a part of the results.
# Assay: Cell viability qHTS assay in S16 Pmp22-F2sN cells; also: nearly all actives have a fitted effect of over 65% in size
# Conditions: S16 Pmp22-F2sN Schwann cells viability, CellTiter-Glo, 24 h; series mostly up to 57.5 µM; activity change, negative = cytotoxicity: at the top concentration
# Method in brief: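 S16 Pmp22-F2sN Schwann cells (500-1,000/well) in phenol-red-free DMEM with 10% FBS received 23 nL compound by pin tool for 24 h at 37 °C. Viability was then read as CellTiter-Glo luminescence after 15 min at room temperature.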
# % is scaled to controls: 0 for no effect and ±100 for the full control effect.
row,Compound,"activity change, negative = cytotoxicity"
1,Cc1ccc(-c2noc(-c3nnn(-c4cccc(C(F)(F)F)c4)c3N)n2)cc1,inactive: 0.587%
2,COc1ccc2c(c1)c1c(c(=O)n(-c3cccc(C)c3)c(=O)n1Cc1cccc(Cl)c1)n2C,inactive: 14.1%
3,O=C(c1cc2c(=O)oc3ccccc3c2s1)N1CCN(c2ccccc2)CC1,inactive: 1.12%
4,Cc1ccc(-n2nc(C)c3c(C)cc(=O)n(CC(=O)Nc4cccc(C)c4C)c32)cc1,inactive: -10.5%
5,O=C(Nc1cc2c(cc1C(=O)c1ccccc1Br)OCCO2)c1cccc(Cl)c1,inactive: 5.16%
6,COc1ccccc1CNc1ncnc2c1cnn2-c1ccc(C)cc1,inactive: -2.76%
7,Cc1nc(-n2nc(C)c(CCC(C)C)c2C)sc1C(=O)Nc1ccc(Cl)cc1,inactive: -3.13%
8,COc1ccc(N2C(=O)CSC23C(=O)N(Cc2cccc(F)c2)c2ccccc23)cc1Cl (stereo unspecified),inactive: 14.3%
9,O=S(=O)(c1ccc2nc(N3CCN(c4ccccc4F)CC3)ccc2c1)N1CCCCC1,inactive: 2.17%
10,CCc1ccc(NS(=O)(=O)c2[nH]ncc2C(=O)OC)cc1,inactive: 19%
11,Cc1ccccc1Cn1c(=O)n(-c2ccc(Cl)cc2)c(=O)c2c3c(sc21)CCCC3,inactive: 3.11%
12,CC(C)NC(=O)CN1C(=O)CCn2nc(-c3cn(C)c4ccccc34)cc21,inactive: 7.39%
13,COCCNC(=O)CCCn1c(SCC(=O)NCc2ccc(C)cc2)nc2c(sc3ccccc32)c1=O,inactive: 1.61%
14,CCC(C)NC(=O)c1sc2nc(C)c(C(=O)Nc3ccc(C)cc3C)c(-c3ccc(NC(C)=O)cc3)c2c1N (stereo unspecified),inactive: -16.5%
15,O=C(O)c1ccc(Cn2c(SCc3ccc(F)cc3)nc3ccncc32)cc1,inactive: -0.198%
16,COCCNc1ccc2cc(S(=O)(=O)N3CCCCC3)ccc2n1,inactive: 3.77%
17,Cc1ccc2nc(NC(=O)CSc3nccn3Cc3ccc(F)cc3)sc2c1,inactive: -1.4%
18,COc1cccc(N2CCN(C(=O)CN3CCSc4ccccc43)CC2)c1,inactive: 2.29%
19,Cc1ccccc1NC(=O)c1sc2nc3c(cc2c1N)CN(Cc1ccccc1)CC3,inactive: -23.4%
20,CCCS(=O)(=O)N1CCC(C(=O)NCCOC)CC1,inactive: -7.45%
21,Cc1cc(F)ccc1NC(=O)C1CCC(CNS(=O)(=O)c2ccc3c(c2)CCCC(=O)N3)CC1 (stereo unspecified),inactive: -2.1%

row,Compound,"activity change, negative = cytotoxicity"
1,O=C(Nc1sc2c(c1C(=O)NCC1CCCO1)CCCC2)c1cc(=O)c2ccccc2o1 (stereo unspecified),inactive: 1.62%
2,O=C(CCn1c(=O)c2sccc2n(Cc2ccc(F)cc2Cl)c1=O)NCc1ccc2c(c1)OCO2,inactive: 6.08%
3,Cc1ccc(-c2nc3ccccc3o2)cc1NC(=O)Cc1ccc(Cl)cc1,inactive: 4.79%
4,Cc1cccc(-c2nc(CN3CCCC(C(=O)NCCc4ccc(Cl)cc4)C3)c(C)o2)c1 (stereo unspecified),inactive: -25.2%
5,Cc1ccccc1CCNC(=O)c1ccc2c(c1)nc1n2CCCCC1,inactive: 0.0726%
6,Cc1cc(C)cc(NC(=O)C2CC(=O)N(c3ccccc3)C2)c1 (stereo unspecified),inactive: -2.8%
7,Cc1ccc2c(c1)c1c(c(=O)n(Cc3ccccc3)c(=O)n1CC(=O)Nc1ccccc1F)n2C,inactive: 3.9%
8,Cc1ccc(-c2cc(C(=O)Oc3ccc(C#N)cc3)no2)cc1C,inactive: -3.38%
9,O=C(NCc1ccccc1)C(=O)Nc1c2c(nn1-c1ccccc1)CSC2,inactive: -24.2%
10,Cc1cc(-c2ccc(C)c(S(=O)(=O)NCC3CCN(Cc4ccccc4F)CC3)c2)on1,inactive: -23.1%
11,Cc1ccc(SCC(=O)Nc2ccc3oc(-c4cccc(Cl)c4)nc3c2)cc1,inactive: 1.72%
12,COc1ccc(OC)c(CNCc2c(C(=O)O)n(Cc3cccc(F)c3)c3cc(OC)ccc23)c1,inactive: -17.1%
13,Cc1ccc(C(c2c(O)cc(C)n(Cc3ccco3)c2=O)N2CCC(C)CC2)cc1 (stereo unspecified),inactive: 14.8%
14,COc1ccc(CC(=O)NCC(c2ccc(Cl)cc2)N2CCOCC2)cc1 (stereo unspecified),inactive: 15%
15,Cc1ccc(C)c(Cn2c(=O)n(-c3ccc(Cl)cc3)c(=O)c3c(C)c(C)sc32)c1,inactive: 7.09%
16,Cc1ccc(Cn2c(=O)n(Cc3ccco3)c(=O)c3oc4ccccc4c32)cc1,inactive: -1.89%
17,CCOc1ccc(OCC)c(NC(=O)c2cnc(SC)nc2-c2ccccc2)c1,inactive: -15.5%
18,Cc1ccc(C)c(NC(=O)CSc2nc3c([nH]c4ccccc43)c(=O)n2-c2ccc(F)cc2)c1,inactive: -22.6%
19,Cc1ccc(Cc2cn3cc(-c4ccccc4)nc3s2)cc1,inactive: 6.37%
20,Cc1ccc(C)c(Oc2nc3c(c(=O)n(C)c(=O)n3C)n2Cc2ccccc2)c1,inactive: 7.61%
21,Cc1ccc(S(=O)(=O)c2nnn3c2nc(NC2CCCCC2)c2sccc23)cc1,inactive: -24%

row,Compound,"activity change, negative = cytotoxicity"
1,CN(C)S(=O)(=O)c1ccc2c(c1)nnn2CCNC(=O)Nc1ccc(Cl)cc1,inactive: -26.4%
2,Cc1ccc2c(=O)cc(C(=O)Nc3ccc(S(=O)(=O)N4CCCCCC4)cc3)oc2c1,inactive: 12.3%
3,O=C(CSc1nc(=O)n(Cc2ccco2)c2c1CCC2)Nc1ccccc1C(F)(F)F,inactive: -2.89%
4,CCCCNC(=O)c1ccccc1NC(=O)CN(c1ccccc1)S(=O)(=O)N(C)C,inactive: 23.6%
5,Cc1ccc(Cl)cc1N1CCN(C(=O)c2cc(S(=O)(=O)N3CCCC3)c[nH]2)CC1,inactive: -18.5%
6,CCc1ccc(NC(=O)C2CCCN(S(=O)(=O)c3ccc(F)cc3)C2)cc1 (stereo unspecified),inactive: 1.5%
7,CCc1nnc(SCC(=O)N(CC)c2ccccc2)c2cc3oc(C)cc3n12,inactive: 6.44%
8,CC(=O)N1CCCc2cc(S(=O)(=O)N3CCC(C(=O)NCc4ccccc4)CC3)ccc21,inactive: 3.63%
9,CCN(Cc1ccccc1)C(=O)Cn1c(=O)n(-c2ccc(Cl)cc2)c(=O)c2c(C)c(C)sc21,inactive: 13%
10,COc1ccc(OC)c(CCNC(=O)CCn2c(=O)c3cccn3c3ccc(F)cc32)c1,inactive: -0.165%
11,Cc1cccc(S(=O)(=O)c2cn(C)c3cc(N4CCN(c5ccc(F)cc5)CC4)c(F)cc3c2=O)c1,inactive: 3.14%
12,CC(C)c1ccc(NC(=O)CSC2=Nc3ccccc3C3=NC(CCC(=O)NCc4ccco4)C(=O)N23)cc1 (stereo unspecified),inactive: -1.9%
13,Cc1ccc(CN2CCCN(Cc3c(C)cc(C)cc3C)S2(=O)=O)cc1,inactive: 2.98%
14,CCCSC1=NC2(CCN(C(=O)NC3CCCCC3)CC2)N=C1c1ccc(Cl)cc1,inactive: -0.771%
15,Cc1cccc(CSc2nc(-c3cccc(C)c3)nc3c2Cc2c(CO)cnc(C)c2O3)c1,inactive: 15.7%
16,Cc1ccc(CNC(=O)CCS(=O)(=O)c2cc3c(cc2C)NC(=O)CO3)cc1,inactive: 11.3%
17,O=C(CSc1nc2c(oc3ccccc32)c(=O)n1Cc1ccco1)Nc1ccccc1,inactive: 6.6%
18,Cc1nn(Cc2noc(C(=O)NC(C)c3ccccc3)n2)c(C)c1Br (stereo unspecified),inactive: -0.159%
19,Cc1ccc(N2CCN(S(=O)(=O)c3c(C)[nH]c(=O)[nH]c3=O)CC2C)cc1 (stereo unspecified),inactive: 10.3%
